# Measurements published in PubChem BioAssay AID1460 (National Center for Advancing Translational Sciences (NCATS), 2008).
# Out of some 270,000 compounds screened, about 5,800 (2.1%) were called active. Inconclusive means that the source gave no clear call. Such entries were picked first, then a sample of the others. Calls follow the shape of the dose curve; as a rule, active = well fitted inhibition curve with a large enough effect; inconclusive = small, poorly fitted or top-dose-only effect; inactive = flat fitted curve, though single readings scatter. Where the call is inconclusive, the potency comes from a doubtful curve fit.
# Target: Microtubule-associated protein tau (Homo sapiens) (UniProt P10636)
# UniProt P10636, sequence (P10636 whole entry, looked up): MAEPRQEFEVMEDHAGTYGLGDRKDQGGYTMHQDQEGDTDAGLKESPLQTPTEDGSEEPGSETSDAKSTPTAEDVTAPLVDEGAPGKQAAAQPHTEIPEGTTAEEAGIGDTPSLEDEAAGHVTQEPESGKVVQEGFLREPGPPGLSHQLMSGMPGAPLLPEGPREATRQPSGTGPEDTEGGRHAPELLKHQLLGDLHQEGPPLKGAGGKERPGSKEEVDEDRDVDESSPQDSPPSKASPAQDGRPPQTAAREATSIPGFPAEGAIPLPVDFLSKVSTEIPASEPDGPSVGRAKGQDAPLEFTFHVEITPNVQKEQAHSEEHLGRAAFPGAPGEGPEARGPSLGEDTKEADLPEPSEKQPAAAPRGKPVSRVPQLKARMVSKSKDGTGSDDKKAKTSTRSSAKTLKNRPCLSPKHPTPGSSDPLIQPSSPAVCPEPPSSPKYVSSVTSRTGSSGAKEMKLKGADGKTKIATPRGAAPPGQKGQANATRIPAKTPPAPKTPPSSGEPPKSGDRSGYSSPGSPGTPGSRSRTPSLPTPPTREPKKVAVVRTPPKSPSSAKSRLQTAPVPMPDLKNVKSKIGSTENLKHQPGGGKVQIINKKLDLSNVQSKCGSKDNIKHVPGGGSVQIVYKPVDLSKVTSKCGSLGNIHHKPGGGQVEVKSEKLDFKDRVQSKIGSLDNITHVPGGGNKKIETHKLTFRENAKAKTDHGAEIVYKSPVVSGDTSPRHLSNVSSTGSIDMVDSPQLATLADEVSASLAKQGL
# Test: qHTS for Inhibitors of Tau Fibril Formation, Thioflavin T Binding; also: nearly all actives have a fitted effect of over 55% in size
# Settings: recombinant tau K18 P301L (four-repeat tau fragment), heparin-induced fibrillization, ThT fluorescence; series mostly up to 57.4 µM
# Outline: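 Tau K18 P301L fragment (15 uM unlabeled plus 0.24 uM Alexa 594-labeled) in 100 mM sodium acetate pH 7 with compound, fibrillization induced by 20 uM heparin for 6 hr at 37 C. Thioflavin T (30 uM) added, fluorescence read after 1 hr (ex 450, em 510 nm).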
# % is scaled to controls: 0 for no effect and ±100 for the full control effect; potency is read from the fitted curve at half-maximal effect; tags tell the direction and shape of the fitted curve.
Compound,Potency,"activity, negative = inhibition"
O=C(N/N=C/c1cc([N+](=O)[O-])ccc1O)C1C2CCCCC21 (stereo not drawn),"inconclusive: 12.6 µM [inhibitor, partial curve]",
Cc1cc([N+](=O)[O-])ccc1NC(=O)CSc1nccn1C,inactive,
O=C(Nc1ccc(F)cc1)C(=O)C1C(=O)Nc2ccccc21 (stereo not drawn),"inconclusive: 14.1 µM [inhibitor, partial curve, poor fit]",
Cc1ccc(C2NC(c3ccc(C)cc3)C(C)C(=O)C2C)cc1 (stereo not drawn),"inconclusive: 44.7 µM [inhibitor, single point]",
COc1ccc(C2NC3=C(CCC3)C3(C#N)C4(N=C(N)C23C#N)OCCO4)cc1 (stereo not drawn),"inconclusive: 39.8 µM [inhibitor, single point]",
O=C(c1ccco1)N1CCN(c2cccc(Cl)c2)CC1,"inconclusive: 35.5 µM [inhibitor, single point]",
CCn1c(SCc2ccccc2Cl)nc2nc3c(cc2c1=O)CCCC3,inactive,
CCOc1ccc(NC(=O)c2cc3c(=O)n4cccc(C)c4nc3s2)cc1,"inconclusive: 1.78 µM [inhibitor, full curve, poor fit]",
CCN(C(=O)CSc1nnc(C)n2c1cc1occc12)c1ccccc1,"inconclusive: 14.1 µM [inhibitor, partial curve, poor fit]",
CCCCc1nn2c(=O)cc(COC(=O)c3ccccc3NC(=O)C3CCCCC3)nc2s1,inactive,
O=C(Nc1cc(-c2nc3ccccc3o2)ccc1Cl)c1cccc2c(Cl)cccc12,"inconclusive: 3.98 µM [inhibitor, single point]",
Oc1[nH]c2ccccc2c1N=Nc1ncnc2c1oc1ccccc12,"inconclusive: 3.16 µM [inhibitor, full curve]",
O=[N+]([O-])c1ccc(NC(=S)N2CCN(c3ccc(F)cc3)CC2)cc1,"inconclusive: 3.98 µM [inhibitor, single point]",
COc1ccc2c(=O)c(OC)c(-c3ccccc3)oc2c1,"inconclusive: 3.98 µM [inhibitor, full curve]",
Cc1ccc(NC(=O)Cn2c(=O)n(Cc3ccc4c(c3)OCO4)c(=O)c3ccc(C(=O)NC4CCCCC4)cc32)cc1,inactive,
COc1cccc(CNC(=O)Nc2cccs2)c1,"inconclusive: 44.7 µM [inhibitor, single point]",
Cc1nccc(-c2cc(-c3ccc(Cl)cc3Cl)no2)n1,"inconclusive: 44.7 µM [inhibitor, single point]",
CCCCCCCCCCCCC/C=C/[C@@H](O)[C@H](CO)NC(=O)CCCCCCC,inactive,
CCCC(=O)NCc1nc2cccnc2n1Cc1ccc(F)cc1,"inconclusive: 22.4 µM [inhibitor, single point]",
CCOc1ccc2c(c1)C(C)=CC(C)(C)N2C(=O)Nc1ccccc1F,"inconclusive: 28.2 µM [inhibitor, single point]",
Cc1nnc(C)c2c(C)n(C(c3ccccc3)c3ccccc3)c(C)c12,"inconclusive: 11.2 µM [inhibitor, partial curve]",
CCN1C(C)=C(C(=O)OC)C(c2ccccc2)N2C(=O)[C@@]3(C(=O)OC)O[C@@]12C1C(=O)N(c2ccccc2)C(=O)C13 (stereo partly drawn),"inconclusive: 7.08 µM [inhibitor, single point]",
CCOC(=O)C1=C(C)OC(N)=C(C#N)C1c1ccsc1 (stereo not drawn),"inconclusive: 44.7 µM [inhibitor, single point]",

Compound,Potency,"activity, negative = inhibition"
COc1ccc(CSc2nc3ccncc3n2Cc2nc(-c3ccc(OC)c(OC)c3)oc2C)cc1,"inconclusive: 14.1 µM [inhibitor, partial curve]",
COc1ccc(S(=O)(=O)c2cn(CC(=O)Nc3ccccc3)c3ccc(Cl)cc3c2=O)cc1,inactive,
Cc1nn(-c2ccccc2)c(C)c1NC(=O)COc1ccc(Cl)cc1Cl,"inconclusive: 7.94 µM [inhibitor, full curve]",
CCc1nnc(NS(=O)(=O)c2ccc(NC(=O)COc3ccc(Cl)c(C)c3)cc2)s1,"inconclusive: 15.8 µM [inhibitor, partial curve]",
Cc1cccc2sc(N(Cc3cccnc3)C(=O)C3CCCCC3)nc12,"inconclusive: 11.2 µM [inhibitor, partial curve]",
Brc1ccc(C2Nc3cccc4cccc(c34)N2)s1,active: 12.6 µM,
COC(=O)[C@@H](N)CSC/C=C(\C)CC/C=C(\C)CCC=C(C)C,"inconclusive: 15.8 µM [inhibitor, partial curve, poor fit]",
COc1ccc2c(c1)c1c(c(=O)n(-c3cccc(Cl)c3)c(=O)n1C)n2C,inactive,
COc1ccc(-c2cnc(N)n2C)cc1,"inconclusive: 15.8 µM [inhibitor, partial curve]",
Cc1ccccc1C(=O)Nc1nc2c(s1)CC(C(C)(C)C)CC2 (stereo not drawn),inactive,
O=[N+]([O-])c1ccc(/C=N/N2CCN(c3ccncc3S(=O)(=O)N3CCCCC3)CC2)cc1,"inconclusive: 6.31 µM [inhibitor, partial curve]",
CCc1ccc2[nH]c(=O)c(C3C(C#N)=C(N)Oc4c3ccc3cccnc43)cc2c1 (stereo not drawn),"inconclusive: 31.6 µM [inhibitor, partial curve]",
CC1Cc2ccccc2N1C(=O)CN1CCC(n2nnc3cc(C(F)(F)F)ccc32)CC1 (stereo not drawn),inactive,
CCOc1ccc(CNC(=O)Cn2nc(C)c3sc4ccccc4c3c2=O)cc1,inactive,
NCC(O)C1CCCCCCC1 (stereo not drawn),inactive,
Cc1oc(-c2ccccc2Cl)nc1CN1CCCC1c1ccc(F)cc1 (stereo not drawn),"inconclusive: 35.5 µM [inhibitor, single point]",
COC(=O)c1[nH]c2cc(OC)ccc2c1NC(=O)CCN1CCN(c2ccccc2)CC1,"inconclusive: 17.8 µM [inhibitor, partial curve]",
COc1ccc(/C=C/C(=O)c2cc(Cl)ccc2O)c(OC)c1,active: 15.8 µM,
O=C(Nc1ccc(Br)cc1)c1ccc(Br)c(S(=O)(=O)NCc2ccccc2)c1,inactive,
COc1ccc(Br)cc1/C=C\C(=O)NCc1cccnc1,inactive,
O=c1ccc(/C=C/c2ccccc2)nn1Cc1ccc(F)cc1,"inconclusive: 39.8 µM [inhibitor, single point]",
COc1cccc(-c2cc(C(=O)NCCc3ccc(C)cc3)[nH]n2)c1,"inconclusive: 5.62 µM [inhibitor, partial curve]",
CC(=O)c1c(C)n(-c2cccc(C)c2)c2ccc(OC(=O)COc3ccccc3)cc12,inactive,

Compound,Potency,"activity, negative = inhibition"
COc1ccc(CN2CCCCC2C)cc1C (stereo not drawn),"inconclusive: 3.55 µM [inhibitor, partial curve, poor fit]",
Cc1cc(C(=O)CC#N)c(C)n1-c1ccc(OC(F)F)cc1,inactive,
CC(C)(C)C1CCc2c(sc3c2C(=O)NC(c2ccco2)N3)C1 (stereo not drawn),"inconclusive: 28.2 µM [inhibitor, single point]",
Cc1ccc(NC(=O)COc2ccc(CCO)cc2-n2nc3ccccc3n2)cc1C,"inconclusive: 22.4 µM [inhibitor, single point]",
CCC(C)COC(=O)c1ccc(C(=O)O)cc1 (stereo not drawn),"inconclusive: 3.16 µM [inhibitor, full curve, poor fit]",
Cc1sc2nc(SCC(=O)NCc3ccco3)[nH]c(=O)c2c1C,inactive,
CCc1ccc2c(CN3CCc4ccccc43)cc(=O)oc2c1,"inconclusive: 22.4 µM [inhibitor, single point]",
O=C(Cn1cc(SCc2cccc(C(F)(F)F)c2)c2ccccc21)N1CCCCCC1,"inconclusive: 31.6 µM [inhibitor, single point]",
Cc1onc(-c2c(Cl)cccc2Cl)c1C(=O)Nc1nc(C(C)(C)C)cs1,"inconclusive: 0.0251 µM [inhibitor, full curve, poor fit]",
CN(C(=O)c1cccc(Nc2ccc(-c3ccc4c(c3)OCCO4)nn2)c1)C1CCCCC1,"inconclusive: 15.8 µM [inhibitor, partial curve]",
Cc1[nH]c2ccc(OCc3ccccc3)cc2c1CCN1C(=O)OC(C)(C)C1(C)O (stereo not drawn),"inconclusive: 17.8 µM [inhibitor, partial curve]",
COC(=O)[C@@H]1CCCN1C(=O)[C@@H](C)CO,,inactive: 3.3% [at 11.5 µM]
O=C(CSc1nc2c([nH]c3ccccc32)c(=O)n1-c1ccc(F)cc1)N1CCCCCC1,inactive,
COc1cc(/C=C2\SC(=S)N(Nc3ncc(C(F)(F)F)cc3Cl)C2=O)ccc1O,active: 15.8 µM,
COc1ccccc1CNC(=O)Nc1ccc2c(c1)N(C)C(=O)c1ccccc1S2,"inconclusive: 22.4 µM [inhibitor, single point]",
Cc1ccc(-c2ccc(/C=N/NC(=O)c3ccccc3O)o2)cc1,"inconclusive: 1 µM [inhibitor, full curve, poor fit]",
COc1ccc2ccccc2c1C(=O)/C=C\c1ccoc1,"inconclusive: 25.1 µM [inhibitor, partial curve]",
Cc1ccc(N2C(=O)N(CC(=O)Nc3cc(C)cc(C)c3)C(=O)C2C)cc1 (stereo not drawn),"inconclusive: 25.1 µM [inhibitor, partial curve]",
Cc1[nH]nc2c1C(c1ccc(F)cc1)C(C#N)=C(N)O2 (stereo not drawn),inactive,
Cn1c2ccccc2c(=O)c2c(=O)n(-c3ccccc3)c(-c3ccc(C(C)(C)C)cc3)nc21,"inconclusive: 15.8 µM [inhibitor, partial curve]",
O=C(N/N=C/c1ccc2c(c1)OCO2)c1sc2cc(Cl)ccc2c1Cl,"inconclusive: 1 µM [inhibitor, full curve]",
O=C(Nc1cccnc1)/C(N=Nc1cccnc1)=C(\O)c1ccccc1,"inconclusive: 25.1 µM [inhibitor, partial curve]",
